# Experimental data: PubChem BioAssay (NCATS)
# Where “and” joins values, the source holds several entries; their conditions need not be identical. Identical values can stand only once. The shares of active, inactive and inconclusive entries below differ from those in the screen. For some assays here: Potencies of inconclusive entries are doubtful fits and often do not repeat. Calls of active or inactive are those of the source. Calls come from the whole dose curve; as a rule, active = well fitted curve in the direction sought with a large enough effect; inconclusive = small, poorly fitted or top-dose-only effect, or another doubt; inactive = no such curve, though single readings can be large; an effect the other way counts as inactive or inconclusive.
# Columns and labels:
# [1] = tested on: Zika virus NS2B-NS3 protease (unlinked complex); assay: Confirmatory screen GU AMC qHTS for Zika virus inhibitors (AID 1347153); note: nearly all actives have a fitted effect of over 70% in size;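 for Potency: enzyme at 25 nM with substrate at 10 µM below its Km of 18.3 µM; potency is the fitted concentration of half-maximal effect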
# In short: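 Unlinked NS2B-NS3 complex (25 nM) in 10 mM Tris-HCl pH 8.0, 0.01% Tween 20 preincubated 15 min with compound, then 10 microM Bz-Nle-KRR-AMC (Km 18.3 µM). Fluorescence change over 15 min, normalized, Hill-fitted.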
# [2] = tested on: Zika virus NS2B-NS3 protease; assay: Primary screen GU AMC qHTS for Zika virus inhibitors (AID 1347154); note: nearly all actives have a fitted effect of over 70% in size; note: potency is the fitted concentration of half-maximal effect;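 for activity change, negative = inhibition: 0% = no-inhibitor control and -100% = no-enzyme control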
# In short: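 Unlinked Zika NS2B hydrophilic domain/NS3 protease domain noncovalent complex (25 nM final) in 10 mM Tris-HCl pH 8.0, 0.01% Tween 20, with AMC peptide substrate. Fluorescence (ex 340, em 450 nm) change over 15 min, room temperature; percent inhibition fitted to 4-parameter Hill equation.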
# [3] = Confirmatory screen NINDS Rhodamine qHTS for Zika virus inhibitors (AID 1347161); conditions: purified enzyme assay, Rhodamine110 substrate fluorescence, 15 min; activity change, negative = inhibition: at 114 µM (top of the series);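 note: purified Zika NS2B-NS3 protease with linked NS2B cofactor domain and Rhodamine110 peptide substrate; plate controls were no-inhibitor control for no effect and no-enzyme control for full effect; nearly all actives have a fitted effect of over 60% in size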
# In short: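 Purified linked NS2B-NS3 protease (NS2B hydrophilic domain joined to NS3 protease by flexible linker), 25 nM in 10 mM Tris-HCl pH 8.0, 0.01% Tween 20. Compounds titrated, 15 min preincubation at room temperature; 1.5 microM Rhodamine110 substrate, FITC fluorescence change over 15 min.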
# Furin (Homo sapiens) = Furin (Homo sapiens) (UniProt P09958); assay: Furin counterscreen qHTS for Zika virus inhibitors (AID 1347149); note: nearly all actives have a fitted effect of over 70% in size; note: potency is the fitted concentration of half-maximal effect;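 for activity change, negative = inhibition: purified recombinant full-length human furin enzyme at 5 nM; fluorescence gain from furin cutting a BOC-RVRR-AMC peptide substrate over 15 min; top concentration of the series differs between compounds; plate controls were no-inhibitor control for no effect and no-enzyme control for full effect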
# In short: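 Counterscreen measures cleavage of 2 microM BOC-RVRR-AMC, below its ~15 microM Km, by 5 nM full-length human furin at pH 7.0 after a 15-min compound preincubation. Inhibition derives from the 15-min fluorescence increase at 37C.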
# [4] = tested on: Zika virus NS2B-NS3 protease (unlinked complex); assay: Primary screen GU Rhodamine qHTS for Zika virus inhibitors: Unlinked NS2B-NS3 protease assay (AID 1347159); note: potency is the fitted concentration of half-maximal effect; nearly all actives have a fitted effect of over 60% in size
# In short: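 In dose–response format, inhibition of unlinked protease (25 nM) was measured with 1.5 microM bis-peptide Rhodamine110 substrate. Aprotinin served as the intraplate control.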
# [5] = tested on: Zika virus NS2B-NS3 protease (unlinked); assay: Optimization of GU AMC qHTS for Zika virus inhibitors: Unlinked NS2B-NS3 protease assay (AID 1347151); note: nearly all actives have a fitted effect of over 80% in size; note: potency is the fitted concentration of half-maximal effect;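 for activity change, negative = inhibition: 0% = no-inhibitor control and -100% = no-enzyme control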
# In short: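 Fluorescence read-out (340 nm ex / 450 nm em) of AMC peptide cleavage, taken immediately and after 15 min at room temperature (~20% conversion). Enzyme was the unlinked NS2B–NS3 complex at 25 nM in Tris pH 8.0 buffer.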
# [6] = tested on: Zika virus NS2B-NS3 protease (linked construct); assay: Confirmatory screen NINDS AMC qHTS for Zika virus inhibitors (AID 1347152); note: nearly all actives have a fitted effect of over 70% in size; note: potency is the fitted concentration of half-maximal effect;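 for activity change, negative = inhibition: AMC fluorescence gain from cleaved Bz-Nle-KRR-AMC substrate over 15 min; top concentration of the series differs between compounds; 0% = no-inhibitor control and -100% = no-enzyme control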
# In short: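 Linked NS2B-NS3 1 nM, Tris pH 8.0/0.01% Tween 20; cpd 15 min RT dark; + Nle-KRR-AMC 10 µM (Km 18.3 µM); read 0 and 15 min, 340/450 nm; %inh vs controls, 4-param Hill.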
# [7] = biological target: Lysine-specific demethylase 5B (Homo sapiens) (UniProt Q9UGL1); assay: Optimization screen for KDM5B Histone Demethylases FDH coupled qHTS against the LOPAC library (AID 1347166); note: potency is the fitted concentration of half-maximal effect
# In short: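 KDM5BDeltaAP (200nM final) in 50mM HEPES pH 7.5, 0.01% Tween-20 was preincubated with compound for 10 min at room temperature. A substrate mix of 12.5uM H3K4Me3, 25uM a-ketoglutarate, ascorbate, Fe2+, NAD+ and formaldehyde dehydrogenase was then added. NADH fluorescence (340/450 nm) was read initially and after 30 min.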
# [8] = ZIKV-mCherry secondary qHTS for Zika virus inhibitors (AID 1347158); note: potency is the fitted concentration of half-maximal effect; for activity change, negative = inhibition: top concentration of the series differs between compounds
# In short: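 Read-out is percent infection: mCherry-positive Vero cells (nuclear-proximal intensity >450 RFU, 3 SD above negative controls) counted by high-content imaging of Hoechst-stained, PFA-fixed wells after 48-72 h with ZIKV-mCherry at MOI 1 and compound.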
# [9] = tested on: Zika virus NS2B-NS3 protease (linked); assay: 384 well plate NINDS AMC confirmatory qHTS for Zika virus inhibitors (AID 1347163); conditions: Recombinant NS2B-NS3 protease, Ac-VKTGKR-AMC fluorescence; note: potency is the fitted concentration of half-maximal effect; nearly all actives have a fitted effect of over 50% in size
# In short: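 Enzyme (5, 30 or 60 nM final) first met test compounds for ~15 min. The AMC-tagged peptide Ac-VKTGKR-AMC followed at 30 microM. Fluorescence was then recorded at 25 min and scaled against no-enzyme and no-inhibitor wells.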
# [10] = HepG2 cells viability qHTS for Zika virus inhibitors (AID 1347168); note: % is set by controls: 0 for no effect and ±100 for the full control effect
# In short: (§1)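 To flag cytotoxic protease inhibitors, viability is measured by ATP-dependent luminescence (CellTiter Glo) after cells attached overnight receive compound for 24 to 48 hours in DMEM with 4% FBS.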
# [11] = tested on: Zika virus NS2B-NS3 protease (linked construct); assay: Primary screen NINDS Rhodamine qHTS for Zika virus inhibitors (AID 1347160); note: potency is the fitted concentration of half-maximal effect; nearly all actives have a fitted effect of over 55% in size
# In short: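 Each compound, titrated, sat 15 min with 25 nM linked protease before 1.5 microM Rhodamine110 substrate went in. Fluorescence gain over the next 15 min, in pH 8.0 Tris with Tween 20, gave Hill-fitted curves.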
# [12] = OV-KATE Cancer Cell Toxicity qHTS against the NCATS CANVASS Library (AID 1347345); conditions: OV-KATE cells viability, CellTiter-Glo luminescence, 72 h; at 38.3 µM (top of the series); note: % is set by controls: 0 for no effect and ±100 for the full control effect
# In short: (§2)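 Quantitative HTS format: an 11-concentration series was applied to 1000 cells/well following a 4-hour attachment. Cultures ran 72 hours before ATP luminescence detection by CellTiter-Glo.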
# [13] = Panc-1005 Cancer Cell Toxicity qHTS against the NCATS CANVASS Library (AID 1347349); conditions: Panc-1005 viability, CellTiter-Glo luminescence, 72 h; note: potency is the fitted concentration of half-maximal effect; nearly all actives have a fitted effect of over 60% in size
# In short: as §2
# [14] = HEK-293 Cancer Cell Toxicity qHTS against the NCATS CANVASS Library (AID 1347355); conditions: HEK-293 viability, CellTiter-Glo luminescence, 72 h; at 46.1 µM (top of the series); note: nearly all actives have a fitted effect of over 65% in size
# In short: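 1000 cells/well, 4 h pre-incubation 37 °C/5% CO2; 11-pnt titration; 72 h; CellTiter-Glo 15 min RT, luminescence.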
# [15] = KB-8-5-11 Cancer Cell Toxicity qHTS against the NCATS CANVASS Library (AID 1347364); conditions: KB-8-5-11 MDR cells viability, CellTiter-Glo, 72 h; at 46.1 µM (top of the series); note: % is set by controls: 0 for no effect and ±100 for the full control effect; nearly all actives have a fitted effect of over 75% in size
# In short: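 CellTiter-Glo luminescence after 72 h exposure; 500 KB-8-5-11 cells/well, DMEM/10% FBS, 37C, 5% CO2; compounds in 11-pt qHTS. Follow-up confirmation included medium with 1uM tariquidar.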
# [16] = SDT Cancer Cell Toxicity qHTS against the NCATS CANVASS Library (AID 1347365); conditions: SDT dog glioma viability, ATP luminescence, 72 h; note: potency is the fitted concentration of half-maximal effect; nearly all actives have a fitted effect of over 60% in size
# In short: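 Luminescent ATP read-out (CellTiterGlo) after 72 hr compound exposure of dog glioma SDT cells, 500 per well. Eleven-point titrations; bortezomib titration run alongside as control.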
# [17] = G06 Cancer Cell Toxicity qHTS against the NCATS CANVASS Library (AID 1347368); conditions: G06 dog glioma cells, viability ATP luminescence, 72 h
# In short: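 ATP luminescence (CellTiterGlo) readout of cytotoxicity. Canine G06 glioma cells, 500/well, 72 hr incubation at 37C with compounds; bortezomib titration served as control.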
# [18] = tested on: Zika virus NS2B-NS3 protease (linked construct); assay: 384 well plate NINDS Rhodamine confirmatory qHTS for Zika virus inhibitors (AID 1347164);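 note: fluorescence from protease cleavage of Ac-LKRR-rhodamine 110 substrate; potency is the fitted concentration of half-maximal effect; nearly all actives have a fitted effect of over 65% in size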
# In short: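 Fluorescence read at ex 485 nm/em 538 nm, 25 min after adding 10 microM Ac-LKRR-Rd substrate at room temperature in the dark; signal normalized to no-enzyme and no-inhibitor controls. Enzyme final 5, 30 or 60 nM; compounds, ~15 min preincubation.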
# [19] = Vero cells viability qHTS for Zika virus inhibitors (AID 1347167); conditions: cytotoxicity counter-screen (Zika); note: potency is the fitted concentration of half-maximal effect
# In short: as §1
# Tags give direction and shape of the fitted curve.
# Sequence of UniProt P09958 (P09958 whole entry, looked up): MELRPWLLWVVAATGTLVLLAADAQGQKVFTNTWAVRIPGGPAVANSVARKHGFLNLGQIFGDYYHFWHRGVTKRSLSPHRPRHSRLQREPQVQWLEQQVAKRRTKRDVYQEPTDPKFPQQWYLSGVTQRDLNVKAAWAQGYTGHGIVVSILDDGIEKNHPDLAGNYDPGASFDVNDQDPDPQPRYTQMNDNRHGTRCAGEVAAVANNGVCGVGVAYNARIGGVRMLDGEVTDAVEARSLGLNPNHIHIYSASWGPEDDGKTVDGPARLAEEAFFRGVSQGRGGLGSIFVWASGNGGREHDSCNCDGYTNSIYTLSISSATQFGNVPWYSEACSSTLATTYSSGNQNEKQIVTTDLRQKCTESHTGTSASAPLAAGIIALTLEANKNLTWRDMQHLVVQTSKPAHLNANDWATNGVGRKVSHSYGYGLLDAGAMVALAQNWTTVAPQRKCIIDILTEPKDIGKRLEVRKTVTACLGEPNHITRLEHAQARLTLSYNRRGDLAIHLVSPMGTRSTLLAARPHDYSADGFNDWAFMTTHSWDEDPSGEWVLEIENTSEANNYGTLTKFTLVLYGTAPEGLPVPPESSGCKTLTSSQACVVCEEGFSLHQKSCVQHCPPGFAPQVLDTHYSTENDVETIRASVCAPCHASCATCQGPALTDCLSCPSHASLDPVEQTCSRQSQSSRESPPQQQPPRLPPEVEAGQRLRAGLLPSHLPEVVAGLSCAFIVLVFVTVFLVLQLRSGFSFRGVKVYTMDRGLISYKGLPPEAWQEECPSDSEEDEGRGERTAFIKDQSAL
# Sequence of UniProt Q9UGL1 (Q9UGL1 whole entry, looked up): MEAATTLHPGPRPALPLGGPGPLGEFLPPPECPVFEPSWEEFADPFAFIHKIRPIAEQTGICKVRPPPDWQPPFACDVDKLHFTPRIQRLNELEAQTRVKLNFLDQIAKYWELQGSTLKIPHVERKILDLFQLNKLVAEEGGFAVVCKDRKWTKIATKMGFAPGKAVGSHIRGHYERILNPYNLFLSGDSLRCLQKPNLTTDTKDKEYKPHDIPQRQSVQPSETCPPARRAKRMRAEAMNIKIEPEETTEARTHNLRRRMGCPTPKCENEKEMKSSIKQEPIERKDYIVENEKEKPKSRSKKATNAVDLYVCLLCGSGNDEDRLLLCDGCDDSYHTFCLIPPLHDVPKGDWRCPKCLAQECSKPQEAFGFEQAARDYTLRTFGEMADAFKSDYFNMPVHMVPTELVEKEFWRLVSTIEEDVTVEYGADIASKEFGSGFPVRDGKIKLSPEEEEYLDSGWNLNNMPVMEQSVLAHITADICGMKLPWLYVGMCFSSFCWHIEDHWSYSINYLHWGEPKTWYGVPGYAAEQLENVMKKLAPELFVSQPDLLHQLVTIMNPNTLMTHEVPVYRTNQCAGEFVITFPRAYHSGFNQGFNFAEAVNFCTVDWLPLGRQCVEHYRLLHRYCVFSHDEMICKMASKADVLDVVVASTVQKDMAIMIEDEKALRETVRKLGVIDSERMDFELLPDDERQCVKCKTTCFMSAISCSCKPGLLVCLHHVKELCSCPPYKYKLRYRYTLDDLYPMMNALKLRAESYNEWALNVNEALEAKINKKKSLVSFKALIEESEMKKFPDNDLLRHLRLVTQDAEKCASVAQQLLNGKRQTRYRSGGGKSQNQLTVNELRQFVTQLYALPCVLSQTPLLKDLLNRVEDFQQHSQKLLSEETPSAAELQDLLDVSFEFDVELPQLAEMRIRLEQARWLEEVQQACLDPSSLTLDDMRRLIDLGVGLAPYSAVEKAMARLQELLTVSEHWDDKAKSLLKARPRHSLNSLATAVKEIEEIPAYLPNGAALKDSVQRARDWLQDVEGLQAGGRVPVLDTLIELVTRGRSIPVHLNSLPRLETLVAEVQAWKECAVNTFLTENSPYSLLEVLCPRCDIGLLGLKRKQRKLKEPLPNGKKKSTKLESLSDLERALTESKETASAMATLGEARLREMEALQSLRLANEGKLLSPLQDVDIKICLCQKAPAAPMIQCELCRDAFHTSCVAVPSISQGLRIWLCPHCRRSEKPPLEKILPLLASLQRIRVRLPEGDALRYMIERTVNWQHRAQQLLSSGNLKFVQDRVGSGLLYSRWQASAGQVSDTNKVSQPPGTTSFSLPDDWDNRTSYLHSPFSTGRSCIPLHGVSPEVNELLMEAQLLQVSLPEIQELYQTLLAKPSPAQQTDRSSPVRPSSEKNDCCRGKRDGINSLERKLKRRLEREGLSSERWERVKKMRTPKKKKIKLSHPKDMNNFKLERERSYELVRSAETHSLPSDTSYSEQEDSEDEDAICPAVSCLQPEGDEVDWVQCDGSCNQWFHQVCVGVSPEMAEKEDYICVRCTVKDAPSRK
smiles,measurement,setting,value
CNC(=O)c1cccc(-c2ccc3c(N4CCOC[C@H]4C)nc(N4CCOC[C@H]4C)nc3n2)c1,Potency,[1],inactive
same,Potency,[2],active: 24.1 µM
same,Potency,[3],inactive
c1cc(N[C@@H]2CCNC2)nc(-c2cnc3ccc(-c4cn[nH]c4)cn23)c1,Potency,Furin (Homo sapiens),active: 24.1 µM
same,Potency,[1],"inconclusive: 27.1 µM [inhibitor, single point]"
same,Potency,[2],active: 19.2 µM
same,Potency,[4],"inconclusive: 100 µM [inhibitor, single point]"
COc1cc2c(cc1OC)C1CC(=O)C(CC(C)C)CN1CC2 (stereo unspecified),Potency,Furin (Homo sapiens),active: 27.1 µM
same,Potency,[5],"inconclusive: 23.8 µM [inhibitor, single point]"
same,Potency,[6],inactive
same,Potency,[1],inactive
same,Potency,[2],inactive
same,Potency,[7],"inconclusive: 25.1 µM [inhibitor, partial curve, poor fit]"
CCCCC[C@H](O)C=C[C@H]1[C@H](O)CC(=O)[C@H]1CCCCCCC(=O)O,Potency,Furin (Homo sapiens),inactive
same,Potency,[2],"inconclusive: 37.7 µM [inhibitor, single point]"
same,Potency,[3],inactive
C=CCc1cccc(C=NNC(=O)CN2CCN(Cc3ccccc3)CC2)c1O,Potency,[5],"inconclusive: 18.9 µM [inhibitor, single point]"
same,Potency,[7],"inconclusive: 31.6 µM [inhibitor, partial curve, poor fit]"
C[C@H]1COC2=C1C(=O)C(=O)c1c2ccc2c1CCCC2(C)C,Potency,Furin (Homo sapiens),"inconclusive: 30.4 µM [inhibitor, partial curve]"
same,Potency,[6],"inconclusive: 15.2 µM [inhibitor, partial curve]"
same,Potency,[2],"inconclusive: 21.5 µM [inhibitor, partial curve]"
same,Potency,[8],inactive
same,Potency,[9],"inconclusive: 44.7 µM [inhibitor, partial curve, poor fit]"
same,Potency,[10],inactive
COc1ccc(-c2ccc3ncc4c(c3c2)n(-c2ccc(N3CCNCC3)c(C(F)(F)F)c2)c(=O)n4C)cn1,"activity change, negative = inhibition",[6],inactive: -9% [at 5.51 µM]
same,Potency,[2],active: 21.5 µM
same,Potency,[4],"inconclusive: 70.8 µM [inhibitor, single point]"
same,Potency,[11],"inconclusive: 5.62 µM [inhibitor, single point]"
same,"activity change, negative = inhibition",[3],inactive: 14.2% [at 12.7 µM]
C[C@H]1COc2c(N3CCN(C)CC3)c(F)cc3c(=O)c(C(=O)O)cn1c23,Potency,[1],"inconclusive: 24.1 µM [inhibitor, partial curve, poor fit]"
same,Potency,[2],active: 27.1 µM and active: 10.6 µM
same,"activity change, negative = inhibition",[3],inconclusive: -30.1% [inhibitor]
Clc1ccc2c(N3CCN(CCCN4CCN(c5ccnc6cc(Cl)ccc56)CC4)CC3)ccnc2c1,Potency,[5],inactive
COc1ccc2[nH]cc(CCNC(C)=O)c2c1,Potency,[5],"inconclusive: 26.7 µM [inhibitor, single point]"
same,Potency,[7],"inconclusive: 31.6 µM [inhibitor, partial curve, poor fit]"
same,"activity change, negative = cytotoxicity",[12],inactive: 1.46%
same,Potency,[13],"inconclusive: 18.8 µM [cytotoxic, partial curve, poor fit]"
same,outcome,[14],inactive
same,"activity change, negative = toxicity",[15],inactive: 7.21%
same,Potency,[16],"inconclusive: 23.5 µM [cytotoxic, single point]"
same,Potency,[17],"inconclusive: 29.6 µM [cytotoxic, single point]"
Cc1ccc(S(=O)(=O)N[C@@H](Cc2ccccc2)C(=O)CCl)cc1,Potency,[5],inactive
same,Potency,[7],"inconclusive: 22.4 µM [inhibitor, partial curve, poor fit]"
Nc1c2c(nc3ccccc13)CCCC2,Potency,[5],"inconclusive: 13.4 µM [inhibitor, partial curve]"
same,Potency,[2],inactive
CCC1(C)CC(=O)NC1=O (stereo unspecified),Potency,[5],inactive
CNC(=O)c1cc(Oc2ccc(NC(=O)Nc3ccc(Cl)c(C(F)(F)F)c3)cc2)ccn1,Potency,[5],active: 9.87 µM
same,Potency,[6],"inconclusive: 19.7 µM [inhibitor, full curve]"
same,Potency,[1],"inconclusive: 24.8 µM [inhibitor, partial curve, poor fit]"
same,Potency,[2],"inconclusive: 12.6 µM [inhibitor, partial curve]"
same,Potency,[8],"inconclusive: 2.24 µM [inhibitor, full curve, poor fit]"
same,Potency,[4],active: 8.91 µM
same,Potency,[11],"inconclusive: 39.8 µM [inhibitor, single point]"
same,Potency,[9],"inconclusive: 398 µM [inhibitor, partial curve, poor fit]"
same,Potency,[18],"inconclusive: 20 µM [inhibitor, full curve, poor fit]"
same,Potency,[19],active: 7.58 µM
